# Paper PMC9911399, “Two distinct binding modes provide the RNA-binding protein RbFox with extraordinary sequence specificity”
# Residue numbers refer to the chain shown, from its start. Some of the results follow.
# T1: RBFOX1 RRM (Homo sapiens, UniProt Q9NWB1 109-208)
# T1 sequence: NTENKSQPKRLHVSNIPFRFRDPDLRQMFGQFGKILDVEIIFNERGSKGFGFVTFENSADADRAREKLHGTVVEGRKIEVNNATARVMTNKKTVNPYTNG
# B1: UAUUAUU (DNA:RNA)
# RNA: GGGAGACCGGAAUUCAGAUUGUCCUAUUAUUUUAAAUCCCGUCGUAGCCACCA
# DNA 1: CAATCTGAATTCCGGTCTCCC
# DNA 2: TGGTGGCTACGACGGGATT
# B2: AAUUCAC (DNA:RNA)
# RNA: B1 RNA with U25A, A29C, U30A, U31C
# DNA 1: CAATCTGAATTCCGGTCTCCC
# DNA 2: TGGTGGCTACGACGGGATT
# B3: GGGCCGG (DNA:RNA)
# RNA: GGGAGACCGGAAUUCAGAUUGUCCGGGCCGGUUAAAUCCCGUCGUAGCCACCA
# DNA 1: CAATCTGAATTCCGGTCTCCC
# DNA 2: TGGTGGCTACGACGGGATT
# B4: CAUCGAA (DNA:RNA)
# RNA: B1 RNA with U25C, U28C, A29G, U30A, U31A
# DNA 1: CAATCTGAATTCCGGTCTCCC
# DNA 2: TGGTGGCTACGACGGGATT
# B5: AAAUCGC (DNA:RNA)
# RNA: B3 RNA with G25A, G26A, G27A, C28U, G31C
# DNA 1: CAATCTGAATTCCGGTCTCCC
# DNA 2: TGGTGGCTACGACGGGATT
# B6: UGCGCUA (DNA:RNA)
# RNA: B3 RNA with G25U, G27C, C28G, G30U, G31A
# DNA 1: CAATCTGAATTCCGGTCTCCC
# DNA 2: TGGTGGCTACGACGGGATT
# B7: GACCCGU (DNA:RNA)
# RNA: B3 RNA with G26A, G27C, G31U
# DNA 1: CAATCTGAATTCCGGTCTCCC
# DNA 2: TGGTGGCTACGACGGGATT
# B8: UGUUUUU (DNA:RNA)
# RNA: B1 RNA with A26G, A29U
# DNA 1: CAATCTGAATTCCGGTCTCCC
# DNA 2: TGGTGGCTACGACGGGATT
# B9: CCCGAAU (DNA:RNA)
# RNA: B1 RNA with U25C, A26C, U27C, U28G, U30A
# DNA 1: CAATCTGAATTCCGGTCTCCC
# DNA 2: TGGTGGCTACGACGGGATT
# B10: AGCUCGA (DNA:RNA)
# RNA: B3 RNA with G25A, G27C, C28U, G31A
# DNA 1: CAATCTGAATTCCGGTCTCCC
# DNA 2: TGGTGGCTACGACGGGATT
# B11: GUCCCAA (DNA:RNA)
# RNA: B3 RNA with G26U, G27C, G30A, G31A
# DNA 1: CAATCTGAATTCCGGTCTCCC
# DNA 2: TGGTGGCTACGACGGGATT
# B12: UUCCCCA (DNA:RNA)
# RNA: B3 RNA with G25U, G26U, G27C, G30C, G31A
# DNA 1: CAATCTGAATTCCGGTCTCCC
# DNA 2: TGGTGGCTACGACGGGATT
# B13: UUGUUUG (DNA:RNA)
# RNA: B1 RNA with A26U, U27G, A29U, U31G
# DNA 1: CAATCTGAATTCCGGTCTCCC
# DNA 2: TGGTGGCTACGACGGGATT
# B14: AGAGGAG (DNA:RNA)
# RNA: B3 RNA with G25A, G27A, C28G, C29G, G30A
# DNA 1: CAATCTGAATTCCGGTCTCCC
# DNA 2: TGGTGGCTACGACGGGATT
# B15: CUCUACU (DNA:RNA)
# RNA: B1 RNA with U25C, A26U, U27C, U30C
# DNA 1: CAATCTGAATTCCGGTCTCCC
# DNA 2: TGGTGGCTACGACGGGATT
# B16: CAUAUUG (DNA:RNA)
# RNA: B1 RNA with U25C, U28A, A29U, U31G
# DNA 1: CAATCTGAATTCCGGTCTCCC
# DNA 2: TGGTGGCTACGACGGGATT
# B17: UGCGUAG (DNA:RNA)
# RNA: B3 RNA with G25U, G27C, C28G, C29U, G30A
# DNA 1: CAATCTGAATTCCGGTCTCCC
# DNA 2: TGGTGGCTACGACGGGATT
# B18: ACCGCCC (DNA:RNA)
# RNA: B3 RNA with G25A, G26C, G27C, C28G, G30C, G31C
# DNA 1: CAATCTGAATTCCGGTCTCCC
# DNA 2: TGGTGGCTACGACGGGATT
# B19: AUUGGUC (DNA:RNA)
# RNA: B1 RNA with U25A, A26U, U28G, A29G, U31C
# DNA 1: CAATCTGAATTCCGGTCTCCC
# DNA 2: TGGTGGCTACGACGGGATT
# B20: CUCUGAA (DNA:RNA)
# RNA: B1 RNA with U25C, A26U, U27C, A29G, U30A, U31A
# DNA 1: CAATCTGAATTCCGGTCTCCC
# DNA 2: TGGTGGCTACGACGGGATT
# Molecular target: T1, RBFOX1 RRM
# Experiment: EMSA; HiTS-Eq, 1 nM pool, 10 min; buffer printed only for the single-RNA assays: 10 mM Tris pH 7.5, 150 mM NaCl, 3.4 mM EDTA, 0.001% NP-40, 30 C
# Settings: tags: His6 N-terminal (pET28a); label: 5' 32P
# Outline: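 Purified RbFox RRM, wild type or mutant, was incubated for 10 min in 50 µL with 1 nM of a 5′-radiolabelled RNA pool carrying 7 randomized nucleotides, whose flanks were annealed to DNA oligonucleotides, over a series of increasing protein concentrations. Unbound RNA was resolved on 8% native PAGE, cut out, reverse-transcribed, barcoded by PCR and sequenced on an Illumina HiSeq 2500. Relative association constants were derived from changes in read counts for each RNA species versus the control reaction and normalised to the cognate motif.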
row,Binder,binding signal
1,B1,0.00349 KA relative to UGCAUGU
2,B2,0.00145 KA relative to UGCAUGU
3,B3,0.0124 KA relative to UGCAUGU
4,B4,0.00449 KA relative to UGCAUGU
5,B5,0.00101 KA relative to UGCAUGU
6,B6,0.0155 KA relative to UGCAUGU
7,B7,0.00715 KA relative to UGCAUGU
8,B8,0.0221 KA relative to UGCAUGU
9,B9,0.0141 KA relative to UGCAUGU
10,B10,0.0166 KA relative to UGCAUGU
11,B11,0.00597 KA relative to UGCAUGU
12,B12,0.00342 KA relative to UGCAUGU
13,B13,0.0392 KA relative to UGCAUGU
14,B14,0.00641 KA relative to UGCAUGU
15,B15,0.00629 KA relative to UGCAUGU
16,B16,0.00447 KA relative to UGCAUGU
17,B17,0.023 KA relative to UGCAUGU
18,B18,0.00162 KA relative to UGCAUGU
19,B19,0.0211 KA relative to UGCAUGU
20,B20,0.0135 KA relative to UGCAUGU
